{"source": "PubChem BioAssay AID1508624", "about": "(National Center for Advancing Translational Sciences (NCATS), 2021)", "note": "Screen size: about 48,000 compounds; about 120 (0.25%) were called active. Inconclusive results (about 4%) are left out. The call rests on the fitted dose curve; in most records, active means well fitted activation curve with a large enough effect; inconclusive means small, poorly fitted or top-dose-only effect, or another doubt; inactive means no such curve, though single readings can be large or run the other way. The list shows a part of the results."}
{"assay": "Primary qHTS for Identification of Small Molecule Activators of Huntingtin-Antisense Promoter Activity; further: nearly all actives have a fitted effect of over 55% in size", "conditions": "HEK293 HTT-AS promoter firefly luciferase reporter, 24 h; series mostly up to 57.5 µM; activity change, positive = activation: at the top concentration", "in_short": "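HEK293 luciferase promoter-reporter cells (2,500/well) plated 24 h, then compounds added at up to 57.5 uM final for 24 h at 37 °C. Firefly luminescence by Dual-Glo, normalized to vehicle (0%) and zero RLU (-100%).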"}
{"smiles": "Cc1ccc(C)c(N(C)C(=O)Cc2c(C(=O)O)[nH]c3ccc(Cl)cc23)c1", "activity change, positive = activation": "inactive: -25.1%"}
{"smiles": "CC(C)(C)CC(C)(C)c1ccc(OCC(=O)Nc2ccc(S(=O)(=O)Nc3ncccn3)cc2)cc1", "activity change, positive = activation": "inactive: 11.5%"}
{"smiles": "COc1ccc(C2C(C(=O)Nc3ccc(C)cc3C)=C(C)Nc3nc(SCc4cccc(C)c4)nn32)c(OC)c1", "note": "(stereo unspecified)", "activity change, positive = activation": "inactive: -0.642%"}
{"smiles": "COc1ccccc1-c1nn2c(=O)cc(CN3CCN(C(=O)/C=C/c4ccccc4)CC3)nc2s1", "activity change, positive = activation": "inactive: -7.45%"}
{"smiles": "COc1ccc(N2CCN(S(=O)(=O)c3ccc(-c4cnc(C5CC5)o4)cc3)CC2)cc1", "activity change, positive = activation": "inactive: -6.23%"}
{"smiles": "COc1cccc(CNC(=O)CN2C(=O)N(c3cccc(Cl)c3)S(=O)(=O)c3ccccc32)c1OC", "activity change, positive = activation": "inactive: -32.3%"}
{"smiles": "CC1=C(C(=O)Nc2ccc(C)cc2C)C(c2ccc(Br)cc2)n2ncc(C(=O)Nc3cccc(C)c3)c2N1", "note": "(stereo unspecified)", "activity change, positive = activation": "inactive: -8.51%"}
{"smiles": "COc1ccccc1CNC(=O)CSc1nc(=O)[nH]c2c1CCC2", "activity change, positive = activation": "inactive: -4.26%"}
{"smiles": "O=C(c1ccc2c(c1)N(Cc1cccc(Cl)c1)C(=O)c1ccccc1S2=O)N1CCN(c2cccc(C(F)(F)F)c2)CC1", "note": "(stereo unspecified)", "activity change, positive = activation": "inactive: -26.4%"}
{"smiles": "Cc1ccc(N(C)C(=O)CN2C(=O)CCc3cc(S(=O)(=O)N4CCOCC4)ccc32)cc1", "activity change, positive = activation": "inactive: -11%"}
{"smiles": "COc1ccccc1CNC(=O)CCn1cnc2ccccc2c1=O", "activity change, positive = activation": "inactive: 4.2% [at 11.5 µM, percent change from vehicle, -100% = no light]"}
{"smiles": "O=C(NC1CC(=O)N(c2ccc(F)cc2)C1)c1ccc2c(c1)OCO2", "note": "(stereo unspecified)", "activity change, positive = activation": "inactive: -15.1%"}
{"smiles": "CCN1CCN(C(c2ccccc2Cl)c2c(O)cc(C)n(Cc3ccco3)c2=O)CC1", "note": "(stereo unspecified)", "activity change, positive = activation": "inactive: -6.4%"}
{"smiles": "Cn1c(=O)c2c(ncn2Cc2ccc(Cl)cc2)n(C)c1=O", "activity change, positive = activation": "inactive: -25.7%"}
{"smiles": "O=C(Cn1c(=O)n2nc(-c3cccc(F)c3)nc2c2ccccc21)N1CCN(c2ccc(F)cc2)CC1", "activity change, positive = activation": "inactive: -0.146%"}
{"smiles": "Cc1cccc(Cn2nnc3c(=O)[nH]c(C4CCCN(C(=O)c5ccccc5Cl)C4)nc32)c1", "note": "(stereo unspecified)", "activity change, positive = activation": "inactive: -16.4%"}
{"smiles": "Cc1cccc(N2CCN(C(=O)c3noc4c3CCCCC4)CC2)c1C", "activity change, positive = activation": "inactive: -6.99%"}
{"smiles": "COc1ccccc1NC(=O)c1cn(-c2ccccc2)nc1-c1ccccc1", "activity change, positive = activation": "inactive: -23.7%"}
{"smiles": "Cc1cc(C(=O)C(=O)Nc2nncs2)c(C)n1-c1ccc(Cl)cc1", "activity change, positive = activation": "inactive: 4.76%"}
{"smiles": "CCc1ccc(NC(=O)Cn2c(=O)n(-c3cc(OC)c(OC)c(OC)c3)c(=O)c3ccccc32)cc1", "activity change, positive = activation": "inactive: -14.2%"}
{"smiles": "CC(NC(=O)c1ccc(F)cc1)c1nc2ccccc2[nH]1", "note": "(stereo unspecified)", "activity change, positive = activation": "inactive: -10.6%"}
{"smiles": "COc1ccc(N2CCN(C(=O)CNS(=O)(=O)c3ccc(Br)s3)CC2)cc1", "activity change, positive = activation": "inactive: -29.7%"}
{"smiles": "N#Cc1nc(/C=C/c2ccc(F)cc2)oc1NCc1ccc(F)cc1", "activity change, positive = activation": "inactive: 4.81%"}
{"smiles": "Cc1ccc(-n2c(=O)c3c(C)c(C)sc3n(Cc3ccc(F)cc3Cl)c2=O)cc1C", "activity change, positive = activation": "inactive: 7.5%"}
{"smiles": "COc1ccc(CCNC(=O)Cc2c(C)c3cc4c(C)coc4cc3oc2=O)cc1OC", "activity change, positive = activation": "inactive: -5.02%"}
{"smiles": "Oc1ccc(-c2nc3ccc(Cl)cn3c2Nc2ccc3c(c2)OCO3)cc1", "activity change, positive = activation": "inactive: 0.0967%"}
{"smiles": "COc1cc(C(=O)NCc2nc3cccnc3n2Cc2ccc(C)cc2)cc(OC)c1OC", "activity change, positive = activation": "inactive: -5.89%"}
{"smiles": "CC(=O)c1ccc(NC(=O)Cn2ncc3c4ccccc4n(Cc4ccccc4)c3c2=O)cc1", "activity change, positive = activation": "inactive: -16.8%"}
{"smiles": "COc1ccc(N(C(=O)c2ccccc2)S(=O)(=O)c2ccc3c(c2)n(C)c(=O)n3C)cc1", "activity change, positive = activation": "inactive: -9.09%"}
{"smiles": "O=C(NCc1ccc(Cl)cc1)C1CCN(S(=O)(=O)c2ccccc2)CC1", "activity change, positive = activation": "inactive: -16.5%"}
{"smiles": "O=C1CC(=O)Nc2cc(S(=O)(=O)N3CCOc4ccc(Cl)cc43)ccc2N1", "activity change, positive = activation": "inactive: -12.4%"}
{"smiles": "CCc1ccc(S(=O)(=O)c2cn(CC)c3cc(N4CCCCC4)c(F)cc3c2=O)cc1", "activity change, positive = activation": "inactive: -8.62%"}
{"smiles": "COc1ccc2nc(NC(=O)c3cc(=O)c4cc(C)cc(C)c4o3)sc2c1", "activity change, positive = activation": "inactive: 7.83%"}
{"smiles": "COc1ccc2c(CNCCc3cccs3)c(C(=O)O)n(Cc3cccc(F)c3)c2c1", "activity change, positive = activation": "inactive: -27.9%"}
{"smiles": "COc1cc(OC)c(NC(=O)C2CCN(S(=O)(=O)c3ccc4c(c3)oc(=O)n4C)CC2)cc1Cl", "activity change, positive = activation": "inactive: -18.6%"}
{"smiles": "Cc1ccc(CNC(=O)CN2CCN(Cc3ccc(F)cc3Cl)C2=O)cc1", "activity change, positive = activation": "inactive: 0.594%"}
{"smiles": "Nc1c(C(=O)NCc2ccc(Cl)cc2)sc2nc(-c3ccc(F)cc3)ccc12", "activity change, positive = activation": "inactive: -9.59%"}
{"smiles": "CCc1ccc(Nc2sc(C(=O)c3ccc(F)cc3)c(N)c2S(=O)(=O)c2ccccc2)cc1", "activity change, positive = activation": "inactive: -18.3%"}
{"smiles": "COc1ccc(C(=O)N2CCN(CC(=O)N3CCOCC3)CC2)cc1", "activity change, positive = activation": "inactive: -1.95%"}
{"smiles": "COc1ccc(OC)c(NC(=O)CCNS(=O)(=O)c2ccc3c(c2)oc(=O)n3C)c1", "activity change, positive = activation": "inactive: -5.49%"}
{"smiles": "CCOc1ccccc1C(=O)NCc1nc2cccnc2n1Cc1ccc(C)cc1", "activity change, positive = activation": "inactive: -24.6%"}
{"smiles": "CCOc1cc(CNC(=O)c2ccc3c(c2)N(C)C(=O)C2CCCCN32)ccc1OC", "note": "(stereo unspecified)", "activity change, positive = activation": "inactive: -5.94%"}
{"smiles": "O=C(CNC(=O)c1ccc(F)cc1)OCc1cc(=O)n2nc(C3CCCCC3)sc2n1", "activity change, positive = activation": "inactive: 0.512%"}
{"smiles": "COc1ccc(OC)c(NC(=O)CN2CCCN(Cc3ccccc3Cl)S2(=O)=O)c1", "activity change, positive = activation": "inactive: -25.4%"}
{"smiles": "CN1CCC(COc2cnc(-c3cccc(Cn4nc(-c5cccc(C#N)c5)ccc4=O)c3)nc2)CC1", "activity change, positive = activation": "inactive: -43%"}
{"smiles": "Cc1ccc(N2CCN(C(=O)c3cnn(-c4ccc(C)c(C)c4)c3C3CCNCC3)CC2)c(C)c1", "activity change, positive = activation": "inactive: -22%"}
